Laboratory results from the supplement of paper PMC10126150.
Values marked as one replicate rest on one cluster of the flow cell; about a third of the high ones do not repeat.

Tested on: ATP
Assay: switch fluorescence ratio, 500 uM ATP over buffer (Cy3 cluster intensity, sum of 5 cycles each) (fold (ratio)); higher = stronger signal-on switching upon ATP binding; sequences stand for … in TCGTCGGCAGCGTCAGATGTGTATAAGAGACAGTTTTTTTTTTTTTTTTTTTTTTTTT…TC
Conditions: aptamer strand: ATP DNA aptamer (quencher-CACCTGGGGGAGTATTGCGGAGGAAGG + anchor), 100 nM annealed; ATP concentration: 500 uM; one replicate
Procedure, shortened: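 For every switch-domain sequence, the fluorescence ratio is the mean of per-cluster values, each being summed target-cycle Cy3 intensity over summed buffer-cycle Cy3 intensity. Clusters outside 100-1000 RFU were excluded. On a modified Illumina MiSeq flow-cell, the Cy3-labelled switching-strand clusters were annealed to 100 nM quencher-labelled ATP aptamer, imaged in selection buffer and then after 15 min with 500 uM ATP at 22 °C. Five such cycles were run, with NaOH stripping and re-annealing between them.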
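Also: ATP exposure 15 min at 22 °C before imaging.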

In the case of GTGTTATCTT, the switch fluorescence ratio is reported as 0.98.

In the case of TTCCAGGAGG, the switch fluorescence ratio is reported as 1.04.

With TTCATTCTGT the switch fluorescence ratio was 0.989.

With CTCGGTAACT the switch fluorescence ratio was 1.11.

ATCATAGACT gave a switch fluorescence ratio of 1.02.

For TTACGCTTCG, the switch fluorescence ratio was 1.03.

For TGAGGTGTCG, the switch fluorescence ratio was 0.935.

For TGCCCGTCCG, the switch fluorescence ratio was 0.96.

GATGCAGTCA was tested, and the switch fluorescence ratio was 1.03.

With GTGCATAAGA the switch fluorescence ratio was 1.01.

For TTACGCAGTG, the switch fluorescence ratio was 1.03.

AAGGTAATCA was tested, and the switch fluorescence ratio was 0.96.

GGAAGTTGTT was tested, and the switch fluorescence ratio was 1.02.

In the case of TCGAAGCGGT, the switch fluorescence ratio is reported as 1.25.

In the case of AGGCAACATG, the switch fluorescence ratio is reported as 1.01.

AATTTTAGG showed a switch fluorescence ratio of 0.956.

TATGAAGCGT gave a switch fluorescence ratio of 0.971.

For AAGAAAACGC, the switch fluorescence ratio was 0.982.

CGACGACCTG gave a switch fluorescence ratio of 1.02.

With TGAGGGACAC the switch fluorescence ratio was 1.25.

Work on GCAGCGTCGG yielded a switch fluorescence ratio of 1.05.

ATGTTGTGAA was tested, and the switch fluorescence ratio was 0.999.

ACAGTGGGGC gave a switch fluorescence ratio of 0.991.

Sequence GCATATAGG has a switch fluorescence ratio of 1.02.

GTGAGGAGAT showed a switch fluorescence ratio of 0.99.

CGTAGAGGAC was tested, and the switch fluorescence ratio was 0.973.

In the case of GCATTGATAG, the switch fluorescence ratio is reported as 0.98.

ATGTATTAGC was tested, and the switch fluorescence ratio was 0.983.

With AATAAGGAGC the switch fluorescence ratio was 1.

TCCCTCTTTT was tested, and the switch fluorescence ratio was 0.993.

CTGGAACAGG gave a switch fluorescence ratio of 1.06.

Sequence ATGTCTGATC has a switch fluorescence ratio of 1.01.

With GATGTATATC the switch fluorescence ratio was 0.987.

ACCTGTGGTG gave a switch fluorescence ratio of 1.06.

In the case of TTAGGTGCAT, the switch fluorescence ratio is reported as 1.2.

GTTGGACGAG was tested, and the switch fluorescence ratio was 0.968.

AGGTATGTAA was tested, and the switch fluorescence ratio was 0.946.

Work on GCTCGGTGTG yielded a switch fluorescence ratio of 1.02.

Work on GTAGCGCCAG yielded a switch fluorescence ratio of 0.998.

In the case of GTCCACTA, the switch fluorescence ratio is reported as 0.965.

TAAGCAGTTG gave a switch fluorescence ratio of 0.964.

In the case of GCACTCAATG, the switch fluorescence ratio is reported as 0.988.

Sequence GGGCAGTTAC has a switch fluorescence ratio of 1.7.

ACGGGGTTAT was tested, and the switch fluorescence ratio was 0.983.

Sequence TTGATGTCTA has a switch fluorescence ratio of 1.01.

TTTGCTTGTC was tested, and the switch fluorescence ratio was 1.02.

TGGCAAGGTC gave a switch fluorescence ratio of 1.02.

ACATACGTCT showed a switch fluorescence ratio of 1.3.

TTTTTGTGTC was tested, and the switch fluorescence ratio was 0.926.

Sequence GCATATGGGT has a switch fluorescence ratio of 1.02.

With TCGGTGGTTA the switch fluorescence ratio was 0.939.

TCTGATAG showed a switch fluorescence ratio of 0.983.

GCATTTCGTT showed a switch fluorescence ratio of 1.02.

Work on AAACGTTGAT yielded a switch fluorescence ratio of 0.982.

In the case of CTATTTGTA, the switch fluorescence ratio is reported as 0.991.

TTTCGGCCA gave a switch fluorescence ratio of 0.993.

GGTCAACACA showed a switch fluorescence ratio of 0.941.

AGGGGCTTCA showed a switch fluorescence ratio of 1.03.

For AGGATTTACG, the switch fluorescence ratio was 1.03.

GTTCCTCGAG was tested, and the switch fluorescence ratio was 1.08.

GTTAATGATA gave a switch fluorescence ratio of 0.986.

GTACTTTAGC was tested, and the switch fluorescence ratio was 1.01.

In the case of CCGGCACAAG, the switch fluorescence ratio is reported as 1.4.

CCATCAAGT showed a switch fluorescence ratio of 0.982.

ACTACTAGTT gave a switch fluorescence ratio of 1.11.

GAATAAACCC gave a switch fluorescence ratio of 0.975.

CGTCTGGGTC showed a switch fluorescence ratio of 1.02.

For AGCCAGACAA, the switch fluorescence ratio was 1.03.

ACAACGCGTC showed a switch fluorescence ratio of 1.1.

For TTTCGGGGAG, the switch fluorescence ratio was 0.976.

With TGGTTTTACA the switch fluorescence ratio was 0.966.

In the case of CATGTGAGTC, the switch fluorescence ratio is reported as 0.986.

For GCGTTGATTG, the switch fluorescence ratio was 0.982.

CGGTTTCCGT was tested, and the switch fluorescence ratio was 1.04.

With AGAATCTCGA the switch fluorescence ratio was 0.978.

AAAACTGGTA gave a switch fluorescence ratio of 0.963.

GATCCCGGTG was tested, and the switch fluorescence ratio was 1.21.

ACACTGATTC showed a switch fluorescence ratio of 1.05.

For CCCTAACGGC, the switch fluorescence ratio was 1.07.

TCAACGGGAG gave a switch fluorescence ratio of 0.999.

ATTATTCTT was tested, and the switch fluorescence ratio was 1.01.

For CTTAACAGGG, the switch fluorescence ratio was 0.956.

CTACACTTGC gave a switch fluorescence ratio of 1.19.

For CTGGTCAGGA, the switch fluorescence ratio was 0.994.

Work on GCTCCTTAAA yielded a switch fluorescence ratio of 1.

AAATGGCGGA was tested, and the switch fluorescence ratio was 0.999.

For GGGGTCCCTA, the switch fluorescence ratio was 0.988.

ACAGTGCGGG showed a switch fluorescence ratio of 0.974.

In the case of GTCGGTAGCT, the switch fluorescence ratio is reported as 0.965.

TAAGAGCTAC gave a switch fluorescence ratio of 1.17.

CCACGAACG was tested, and the switch fluorescence ratio was 1.38.

TTATATTCCG showed a switch fluorescence ratio of 0.988.

Sequence GGGGATCTGG has a switch fluorescence ratio of 0.992.

Sequence TTGTGACAGG has a switch fluorescence ratio of 0.952.

ATCGGGACTT showed a switch fluorescence ratio of 1.01.

In the case of GACAACAGAA, the switch fluorescence ratio is reported as 1.04.

Sequence TACTTCTG has a switch fluorescence ratio of 1.06.

In the case of GACGAATTGT, the switch fluorescence ratio is reported as 1.

For AAACGCACTT, the switch fluorescence ratio was 1.48.

GACTATCTTA gave a switch fluorescence ratio of 0.99.

GACCGCTAA showed a switch fluorescence ratio of 1.87.

Work on GGTATGTTTC yielded a switch fluorescence ratio of 1.01.

In the case of TGCTGGGGG, the switch fluorescence ratio is reported as 1.04.

Sequence AGCCAGGAGG has a switch fluorescence ratio of 0.995.

Work on GTGGGAATTG yielded a switch fluorescence ratio of 0.965.

With AATGAATTTT the switch fluorescence ratio was 0.952.

For ATGTGAGGTG, the switch fluorescence ratio was 1.02.

Sequence TTAGCTGATC has a switch fluorescence ratio of 0.998.

TGCATGTGAA showed a switch fluorescence ratio of 0.982.

CATGGCAGAT was tested, and the switch fluorescence ratio was 0.972.

In the case of TTAAACGAGG, the switch fluorescence ratio is reported as 0.985.

In the case of TAACGAAACG, the switch fluorescence ratio is reported as 0.993.

Sequence TTCCGCAGAG has a switch fluorescence ratio of 4.13.

CCTAGCGGCC gave a switch fluorescence ratio of 1.48.

With TCAGTTACAA the switch fluorescence ratio was 1.

TTAGTCCATC gave a switch fluorescence ratio of 1.01.

With TGAGGGACCC the switch fluorescence ratio was 0.964.

AAGCACCTAT showed a switch fluorescence ratio of 1.17.

Sequence GCTATCAAGC has a switch fluorescence ratio of 0.998.

Sequence ATTGGTAAAA has a switch fluorescence ratio of 1.02.

With TTTGGGCTCA the switch fluorescence ratio was 0.968.

AGGCGGAATT showed a switch fluorescence ratio of 1.15.

In the case of CTAGAACTTT, the switch fluorescence ratio is reported as 1.01.

GAACCGCGTT was tested, and the switch fluorescence ratio was 1.01.

In the case of TTTTGCGGTA, the switch fluorescence ratio is reported as 1.03.

GCTCAATACA showed a switch fluorescence ratio of 1.26.

Work on AGGCGGTGG yielded a switch fluorescence ratio of 0.95.

TGCGTGTAGT gave a switch fluorescence ratio of 0.97.

AATGGGGTAG was tested, and the switch fluorescence ratio was 1.02.

In the case of GAGTTGATTC, the switch fluorescence ratio is reported as 1.02.

For CCAACGGGTC, the switch fluorescence ratio was 1.14.

TCTAAATTTT showed a switch fluorescence ratio of 0.959.

With CGTCGAGAAC the switch fluorescence ratio was 1.08.

For CCGGTCTGAG, the switch fluorescence ratio was 1.

Sequence ACAACCAGAC has a switch fluorescence ratio of 1.57.

With TCTACTAGGC the switch fluorescence ratio was 1.

Sequence GCGGGGGTC has a switch fluorescence ratio of 0.981.

GTGAGAGTGC gave a switch fluorescence ratio of 1.

Sequence GTTTTAATAA has a switch fluorescence ratio of 1.01.

For ATCAGGGT, the switch fluorescence ratio was 0.98.

CGCATGATAT was tested, and the switch fluorescence ratio was 1.35.

Work on GAGCCTCCTC yielded a switch fluorescence ratio of 1.11.

Work on GCTAATCTTC yielded a switch fluorescence ratio of 0.983.

In the case of GTTTTGGCCT, the switch fluorescence ratio is reported as 1.08.

For TAGTGCCTTC, the switch fluorescence ratio was 1.

Work on GCAACTAGTC yielded a switch fluorescence ratio of 1.19.

With TTCCTACGG the switch fluorescence ratio was 1.11.

Work on ACTTCACACT yielded a switch fluorescence ratio of 1.42.

GAAATAAGA showed a switch fluorescence ratio of 1.01.

Sequence AGAGCGGGGA has a switch fluorescence ratio of 1.02.

With CATAGGGTCG the switch fluorescence ratio was 0.968.

Sequence CTTTAATCGC has a switch fluorescence ratio of 1.02.

For CCAAAGTTTC, the switch fluorescence ratio was 1.06.

TTGGGACTGA showed a switch fluorescence ratio of 0.985.

For AGAACACGTA, the switch fluorescence ratio was 1.13.

Sequence AGAGGAGCTA has a switch fluorescence ratio of 1.01.

Sequence TACATTATGT has a switch fluorescence ratio of 0.995.
